Out of some 48,000 compounds screened, about 450 (0.94%) were called active. Inconclusive results (about 19%) are left out. The call rests on the fitted dose curve; in most records, active means well fitted inhibition curve with a large enough effect; inconclusive means small, poorly fitted or top-dose-only effect; inactive means no such curve, though single readings can be large or run the other way. Some of the results follow.

This assay in a line: Primary qHTS for Identification of Small Molecule Inhibitors of Huntingtin Promoter Activity. Further: nearly all actives have a fitted effect of over 50% in size. Conditions: HEK293 HTT promoter firefly luciferase reporter (activity 0% = vehicle and -100% = no light), 24 h; series mostly up to 57.5 µM; activity change, negative = inhibition: at the top concentration. An outline of the steps: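 Quantitative HTS used concentration series of up to 57.5 uM final on HEK293 luciferase reporter cells, 24 h at 37 degrees C. Readout was Dual-Glo firefly luminescence.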
Background: qHTS replaces the single test concentration by a dilution series.
Take `CCN(CC)CCCNC(=O)Cn1nc(N2CCN(c3ccccc3OC)CC2)ccc1=O`: the “activity change, negative = inhibition” value is inactive: -4.66%.
The value for `COc1cc(OC)c(N(C)C(=O)c2nn(C)c3c2CSc2ccccc2-3)cc1Cl` was inactive: -6.73%; that for `CCOc1ccccc1NC(=O)c1sc(-n2nc(C)c(CCC(C)C)c2C)nc1C` was inactive: -15.8%; that for `Cc1ccc(Cl)cc1N1CCN(C(=O)c2ccc3c(c2)N(Cc2ccccc2F)C(=O)c2ccccc2S3(=O)=O)CC1` was inactive: -10.7%.
To `CCCCOc1ccc(S(=O)(=O)N2CCN(c3ccccc3OCC)CC2)cc1` belongs inactive: 1.1%; to `COc1ccc(Cl)cc1NC(=O)CN(C)S(=O)(=O)c1ccc(Br)s1`, inactive: -23%; to `CCC1CCCCN1CCCNC(=O)CN1C(=O)CSc2ccc(S(=O)(=O)N3CCC(C)CC3)cc21` (configuration not stated), inactive: -15.8%.
For `Cc1cc(C)c2oc(-c3cccc(NC(=O)c4ccco4)c3)nc2c1`, the “activity change, negative = inhibition” value was inactive: -0.917%.
The value for `COCCCNC(=O)CCC(=O)N1Cc2ccccc2Oc2ncccc21` was inactive: 17.3%; that for `Cc1cc2c(c3oc(=O)c4ccccc4c13)CN(Cc1ccc(F)cc1)CO2` was inactive: -3.25%; that for `O=C(Nc1cccc(Cl)c1)Nc1ccccc1OCc1cc(=O)n2ccccc2n1` was inactive: 8.33%.
The value for `C#CCN[C@@H]1CCc2ccccc21` was “inactive”.
Regarding `C1COC(NC(C2CC2)C2CC2)=N1`, the activity change, negative = inhibition entry is “inactive”.
`Cc1ccc(CNC(=O)Cn2ccn(-c3ccc(C)c(C)c3)c(=O)c2=O)cc1`: the “activity change, negative = inhibition” value is inactive: -2.12%.
On to `CN(C)c1ccc(CNC(=O)CN(C)S(=O)(=O)c2ccc3c(c2)c(=O)n(C)c(=O)n3C)cc1`, for which the “activity change, negative = inhibition” value was inactive: -17.1%.
The value for `Cc1ccc(-n2nc3c(N4CCCC(C(=O)NCCc5ccccc5)C4)nnc(C)c3c2C)cc1` (configuration not stated) was inactive: -4.55%; that for `COc1cccc(C(=O)Nc2c(C(=O)NC(C)(C)C)oc3ccccc23)c1` was inactive: -4.45%; that for `CCc1cccc(NC(=O)Cn2c(=O)n(CCc3ccc(OC)c(OC)c3)c(=O)c3ccccc32)c1` was inactive: -12.2%.
To `O=C(Cn1ncc2c(=O)oc3ccccc3c21)NCc1ccccc1Cl` belongs inactive: -18.9%; to `CCOC(=O)Cn1cccc1-c1nc(-c2ccc(OC)cc2)c(-c2ccc(OC)cc2)s1`, inactive: -6.6%; to `CCOC(=O)c1c(C)[nH]c(C)c1S(=O)(=O)N1CCCC(C(=O)Nc2ccc(OC)c(Cl)c2)C1` (configuration not stated), inactive: -15.1%.
The value for `COc1cc(OC2CCN(C)CC2)ccc1Nc1ncc2c(n1)n(C1CCCC1)c(=O)n2C` was inactive: -26.7%; that for `O=C(Cn1ncc2c3ccccc3n(Cc3ccccc3F)c2c1=O)NCCc1ccc(Cl)cc1` was inactive: -12.2%.
For the molecule `COc1cccc(CNC(=O)CSc2c3c(nc4ccc(Cl)cc24)CCCC3)c1OC`, the “activity change, negative = inhibition” value was inactive: -12.6%.
The value for `CC1=C(C(=O)Nc2ccc(C)cc2C)C(c2ccc(Cl)cc2)n2nc(C(=O)OC(C)C)nc2N1` (configuration not stated) was inactive: -6.94%; that for `O=C(Cn1cnc(S(=O)(=O)N2CCCC2)c1)Nc1ccc(OC(F)(F)F)cc1` was inactive: -18.1%.
As for `CCc1ccc(NC(=O)c2cc3sc(Cl)cc3n2C)cc1`, the “activity change, negative = inhibition” value is inactive: 41.9%.
Turning to `Cc1ccccc1Nc1nnc(-c2ccc(C)c(S(=O)(=O)N3CCOCC3)c2)c2ccccc12`, the “activity change, negative = inhibition” value was inactive: -18.4%.
The value for `COc1ccc(CN2COc3ccc4c(-c5ccccc5)cc(=O)oc4c3C2)cc1` was inactive: -11.1%; that for `Cc1cccc(N2CCN(C(=O)C3CCN(S(=O)(=O)c4cccs4)CC3)CC2)c1C` was inactive: -25.9%.
The value for `COc1ccc(OC)c(NC(=O)Cn2cnc3c(oc4ccccc43)c2=O)c1` was inactive: 15%; that for `CCOC(=O)c1cc(-c2ccccc2)n(CC(=O)Nc2ccc(OC)cc2OC)c1C` was inactive: -15.7%; that for `CCOc1ccc(NC(=O)C2CCN(S(=O)(=O)c3cc(-c4noc(C)n4)ccc3C)CC2)cc1` was inactive: -10.5%.
Regarding `CSc1cccc(-c2nnc(NC(=O)c3ccc4c(c3)OCCO4)o2)c1`, the “activity change, negative = inhibition” value is inactive: -18.6%.
Turning to `CC(C)CC(=O)NCc1nc2cccnc2n1Cc1ccccc1`, the “activity change, negative = inhibition” value was inactive: -2.22%.
To `CCOC(=O)c1nc(Nc2ccc(C(=O)OCC(C)C)cc2)c2ccccc2n1` belongs inactive: -15.5%; to `Cc1ccc2oc(C(=O)N(Cc3cccc(F)c3)C3CCS(=O)(=O)C3)c(C)c2c1` (configuration not stated), inactive: -15.9%.
To `COc1ccc(N2CCN(C(=O)c3cc(S(=O)(=O)N4CCCCCC4)cn3C)CC2)cc1` belongs inactive: -15.5%; to `COc1ccc(-c2cc(=S)ss2)cc1`, inactive: 6.24%.
The value for `O=C(NCc1ccccc1Cl)C1CCC(CNS(=O)(=O)c2ccc(Cl)cc2)CC1` (configuration not stated) was inactive: -4.37%; that for `COc1cccc(NC(=O)N2CCC(n3c(C)nc4cccnc43)CC2)c1` was inactive: -14.8%; that for `COc1cccc(Cn2c(=O)n(-c3ccc(C)c(F)c3)c(=O)c3sc4ccccc4c32)c1` was inactive: -13.7%.
As for `Cc1ccc(-c2cc(C(F)(F)F)n3nc(-c4ccc(Cl)cc4)cc3n2)cc1`, the activity change, negative = inhibition is inactive: -16.2% [at 11.5 µM].
To `COc1ccc(CNC(=O)C2CCN(Cc3nc(-c4ccc(OC)c(OC)c4)oc3C)CC2)cc1` belongs inactive: 2.33%; to `COc1cccc(OC)c1C(=O)Nc1nnc(C)s1`, inactive: -13.8%; to `O=C(COC(=O)C(Cc1c[nH]c2ccccc12)NC(=O)c1ccc(Br)cc1)c1ccc(Cl)cc1` (configuration not stated), inactive: -22.9%.
To `Cc1cc(C(C)(C)C)c(O)c(C(C)(C)C)c1` belongs inactive: 3.11%.
The value for `COc1ccccc1N1CCN(C(=O)c2sc3nc4n(c(=O)c3c2C)CCC4)CC1` was inactive: 0.937%.
On to `CCOc1ccc(C(=O)c2cn(Cc3ccccc3OC)c3cc4c(cc3c2=O)OCCO4)cc1`, for which the “activity change, negative = inhibition” value is inactive: 6.98%.
The value for `CCCCN(CC)CCNC(=O)c1cn(CCOC)c(=O)c2c1c1ccccc1n2C` was inactive: -6.25%; that for `O=C(NC1CC(=O)N(c2cccc(F)c2)C1)c1ccc(S(=O)(=O)N2CCOCC2)cc1` (configuration not stated) was inactive: -0.623%; that for `COc1ccccc1CN1COc2ccc3c(C)cc(=O)oc3c2C1` was inactive: -20.7%.
The value for `CCOC(=O)c1ccc(NC(=O)CSc2ccc(-c3sc(C)nc3C)nn2)cc1` was inactive: -21.5%; that for `COc1ccc(Cn2ccc3nc(C)c(C(=O)N4CCN(c5ccccc5)CC4)cc3c2=O)cc1` was inactive: -0.678%.
To `COc1ccc(C(=O)c2oc3ccccc3c2NC(=O)c2ccc(F)cc2)cc1` belongs inactive: 1.68%; to `O=C(c1cn(CCOc2ccccc2F)c2ccccc12)C1CCCCC1`, inactive: -16.5%.
On to `CCOC(=O)c1ccc(NC(=O)c2cn(-c3ccccc3)nc2-c2ccc(Br)cc2)cc1`, for which the “activity change, negative = inhibition” value was inactive: -1.69%.
To `CN/C(=C\[N+](=O)[O-])NCCSCc1ccc(CN(C)C)o1` belongs inactive: -4.19%; to `COc1ccc(NC(=O)CSc2oc(-c3cccs3)nc2S(=O)(=O)c2ccc(Br)cc2)c(OC)c1`, inactive: -8.92%.
As for `Cc1cccc(Cn2cc(C(=O)c3ccccc3)c(=O)c3cc4c(cc32)OCO4)c1`, the “activity change, negative = inhibition” value was inactive: -17.1%.
`Cc1ccc(Nc2sc(C(=O)c3ccccc3)c(N)c2C(=O)NC(C)C)cc1`: the “activity change, negative = inhibition” value is inactive: -15.8%.
For `CCc1nonc1NC(=O)c1oc2cc(C)c(Cl)cc2c1C`, the “activity change, negative = inhibition” value was inactive: -21.5%.
